Results published in the RNAGym collection of RNA variant scans (doi:10.7554/elife.90254).
Read counts are not given, so values of variants with three or more changes are uncertain.

B1: LINE1-mini (parent)
chain: GGCAGAGCUCAACACAGCGUGGCAAAGUGGCUGUGGCUAGACUGCC

Variants of: B1
Assay: self-cleavage, relative activity (ratio to wild type); higher = more cleavage; in vitro, sequencing; the parent is a self-cleaving ribozyme

| Variant | self-cleavage |
| --- | --- |
| A4U G33C U43C | 0.07 |
| A4U G35A C45G | 0.2 |
| A4U G35A C45U | 0.61 |
| A4U G35U G44A | 0.04 |
| A4U G36C G40A C45U | 0.17 |
| A4U G36U C46U | 0.28 |
| A4U G40A A41G | 0.04 |
| A4U G40A C46A | 0.04 |
| A4U G44A C45A | 0.24 |
| A4U G44U C46U | 0.1 |
| A4U U9A A25C G33A | 0.21 |
| A4U U9A A26U | 0.07 |
| A4U U9A C13A G21A G30U G33A | 0.17 |
| A4U U9A C13U C46A | 0.09 |
| A4U U9A G17C U20G | 0.08 |
| A4U U9A G29U | 0.17 |
| A4U U9A U28G C45A C46U | 0.11 |
| A4U U9C A11U | 0.02 |
| A4U U9C A12G C23A G40U | 0 |
| A4U U9C C23A G35C | 0.06 |
| A4U U9C G19U | 0.07 |

| Variant | self-cleavage |
| --- | --- |
| A4U U9C G21U C45A | 0.03 |
| A4U U9C G22C C45A | 0.02 |
| A4U U9C G33U | 0.04 |
| A4U U9G A12C G33A | 0.02 |
| A4U U9G C31A | 0.05 |
| A4U U9G G17A | 0.04 |
| A4U U9G G21C G22A U32C G33U G35U | 0.08 |
| A4U U9G G22A | 0.28 |
| A4U U9G G36U C42U | 0.01 |
| A4U U9G G44C | 0.02 |
| A4U U20A G36U | 0.31 |
| A4U U20A U34C | 0.37 |
| A4U U20C C45G | 0.05 |
| A4U U20C G21U | 0.14 |
| A4U U20C G33U | 0.03 |
| A4U U20G A39U | 0.09 |
| A4U U20G G22C U34A G36A | 0.07 |
| A4U U20G G30U A39C | 0.03 |
| A4U U28A G36U | 0.15 |
| A4U U28C G30U C37A U38A C42U | 0.04 |
| A4U U28C G33C C46U | 0.06 |

| Variant | self-cleavage |
| --- | --- |
| A4U U28C G40U | 0.09 |
| A4U U28C U32A | 0.07 |
| A4U U28G G40A | 0.09 |
| A4U U28G U38A | 0.13 |
| A4U U32A C37G U38A | 0.08 |
| A4U U32G C42A | 0.03 |
| A4U U32G G36C C46U | 0.04 |
| A4U U32G G44U C46G | 0.07 |
| A4U U43G C45A | 0.04 |
| G5A A6C A11G A16C | 0.01 |
| G5A A6C A11U C13U A14G C23A | 0.01 |
| G5A A6C A12G C13G U38C | 0.03 |
| G5A A6C A25G G29C | 0.04 |
| G5A A6C C10G A11G | 0.02 |
| G5A A6C C10U C42G C45A | 0.02 |
| G5A A6C G17A A24G C31A C37A | 0.04 |
| G5A A6C U9C G21U G40U | 0.08 |
| G5A A6C U32G | 0.03 |
| G5A A6G A11U C15U | 0.08 |
| G5A A6G A14U G22A | 0.15 |
| G5A A6G A24U | 0.03 |

| Variant | self-cleavage |
| --- | --- |
| G5A A6G A24U A39U | 0.04 |
| G5A A6G A25G | 0.06 |
| G5A A6G C13A C18U C23G G36C C37A C46U | 0.06 |
| G5A A6G C15U C31G | 0.04 |
| G5A A6G G7U C23A U28A C31A U34A | 0.17 |
| G5A A6G G7U U9A A25C G30A | 0.06 |
| G5A A6G G29A C31U U34G | 0.03 |
| G5A A6G U20C C31A G35C | 0.01 |
| G5A A6U A12C C15A U28C | 0.03 |
| G5A A6U C10A G22C U34A | 0 |
| G5A A6U G7A | 0.09 |
| G5A A6U G7U C23G | 0.08 |
| G5A A6U G21C G35A | 0.1 |
| G5A A6U G30U A41C | 0.02 |
| G5A A6U U9A A12C G21C A24G A26C | 0.04 |
| G5A A6U U9G A16C | 0.09 |
| G5A A11C A12U C18A A24U G27C A41C | 0.01 |
| G5A A11C A25U U38C G40A | 0.01 |
| G5A A11C A26G G44U | 0.03 |
| G5A A11C C15A | 0.03 |
